Experimental data taken from the supplement of paper PMC3334620.
In all, about 33,000 sequences were measured (“E-score (-0.5 to 0.5)”: median about -0.013, highest 2% from about 0.3 on). Some of the results follow.

Molecular target: T1, Msn1 (UniProt P22148)
T1 sequence: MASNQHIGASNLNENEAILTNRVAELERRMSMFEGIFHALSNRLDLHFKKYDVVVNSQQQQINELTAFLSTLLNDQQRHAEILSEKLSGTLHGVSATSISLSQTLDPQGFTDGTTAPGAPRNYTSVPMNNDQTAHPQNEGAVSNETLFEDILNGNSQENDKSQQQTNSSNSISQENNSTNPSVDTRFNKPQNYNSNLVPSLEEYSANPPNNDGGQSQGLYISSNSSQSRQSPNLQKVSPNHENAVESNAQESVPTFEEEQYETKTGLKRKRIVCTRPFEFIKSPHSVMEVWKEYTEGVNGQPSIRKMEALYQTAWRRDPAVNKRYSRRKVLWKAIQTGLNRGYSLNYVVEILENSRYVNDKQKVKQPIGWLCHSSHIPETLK
Assay: PBM E-score (8-mer binding enrichment) (E-score (-0.5 to 0.5)); higher = stronger / more preferred TF binding; most listed sequences are background and not binding sites
Conditions: protein concentration: 200 nM; construct: GST-full length
In short: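 PURExpress in vitro transcription/translation supplied GST-tagged yeast transcription factors, either full-length or DNA-binding domain. Applied at about 100-200 nM to universal all-10-mer Agilent arrays double-stranded by primer extension, the bound protein was detected with fluorescent anti-GST. E-scores, modified Wilcoxon-Mann-Whitney statistics, were given by the Universal PBM Analysis Suite to ungapped eight-base words pooled with their reverse complements after masliner normalisation.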

For AGGGGAGA, which “PBM E-score” value is on record?
The value was -0.182.

For TTTTAAAA, which “PBM E-score” value is on record?
The value was 0.263.

With GTGGCTTA as the sequence, how does the “PBM E-score” value read?
The value was -0.153.

How did the “PBM E-score” value turn out when CGGTAGGC was run?
Its value is -0.057.

With CTTCCAAC as the sequence, how does the “PBM E-score” value read?
Its value is -0.152.

With GAGGCTTA as the sequence, how does the “PBM E-score” value read?
Its value is -0.241.

Which “PBM E-score” value does the source give for CGCAGTCC here?
Its value is -0.139.

For CGTAGCAA, which “PBM E-score” value is on record?
Its value is -0.00263.

With AAGCTGCT as the sequence, how does the “PBM E-score” value read?
Its value is -0.016.

TAGACGGA was tested. Which “PBM E-score” value did it give?
The value was 0.122.

How did the “PBM E-score” value turn out when GCGGGACC was run?
The value was -0.22.

GAGCTTTA was tested. Which “PBM E-score” value did it give?
Its value is -0.0905.

How did the “PBM E-score” value turn out when CCTCGAGA was run?
Its value is -0.065.

Which “PBM E-score” value does the source give for ACCTCACT here?
Its value is 0.0185.

Which “PBM E-score” value does the source give for ACACGTAG here?
Its value is 0.091.

For TCTCGGCA, which “PBM E-score” value is on record?
Its value is 0.0465.

Which “PBM E-score” value does the source give for CCCCTTAA here?
Its value is -0.157.

ACACATAA was tested. Which “PBM E-score” value did it give?
The value was 0.217.

Which “PBM E-score” value does the source give for GCACGCAC here?
Its value is -0.213.

How did the “PBM E-score” value turn out when TCACGCGA was run?
Its value is 0.123.

For AACGGGAG, which “PBM E-score” value is on record?
Its value is 0.0589.

With CAGATGGG as the sequence, how does the “PBM E-score” value read?
The value was -0.136.

How did the “PBM E-score” value turn out when ACCATCGT was run?
The value was -0.0409.

For ACCGAATA, which “PBM E-score” value is on record?
The value was -0.0139.

How did the “PBM E-score” value turn out when CAAGACGG was run?
Its value is -0.0583.

GTCCCGGA was tested. Which “PBM E-score” value did it give?
The value was 0.29.

For CACCATGC, which “PBM E-score” value is on record?
The value was -0.218.

How did the “PBM E-score” value turn out when AGCACAAA was run?
Its value is 0.118.

With GAGTTTTA as the sequence, how does the “PBM E-score” value read?
The value was 0.179.

CCCGACGA was tested. Which “PBM E-score” value did it give?
Its value is 0.138.

CCTAGTAG was tested. Which “PBM E-score” value did it give?
Its value is 0.0026.

ATTGATAA was tested. Which “PBM E-score” value did it give?
Its value is 0.071.

How did the “PBM E-score” value turn out when CCTGGTAA was run?
The value was -0.126.

CGGCGTTC was tested. Which “PBM E-score” value did it give?
The value was -0.103.

With GCGGAATA as the sequence, how does the “PBM E-score” value read?
The value was 0.11.

Which “PBM E-score” value does the source give for GCATGAAC here?
The value was 0.11.

ATAACGTA was tested. Which “PBM E-score” value did it give?
Its value is 0.0774.

ATGCTGTG was tested. Which “PBM E-score” value did it give?
Its value is 0.0855.

How did the “PBM E-score” value turn out when CACGAACA was run?
The value was 0.24.

Which “PBM E-score” value does the source give for CGCCGGGA here?
The value was -0.0452.

Which “PBM E-score” value does the source give for GCGCTCCC here?
The value was -0.231.

With CATGTATA as the sequence, how does the “PBM E-score” value read?
Its value is 0.141.

With ATGTTTGA as the sequence, how does the “PBM E-score” value read?
Its value is 0.0858.

Which “PBM E-score” value does the source give for TCCTGGCA here?
The value was 0.0904.

With GCTTAGAC as the sequence, how does the “PBM E-score” value read?
Its value is 0.054.

How did the “PBM E-score” value turn out when CCAAGGCC was run?
The value was -0.165.

How did the “PBM E-score” value turn out when ATGAGTGG was run?
The value was -0.261.

How did the “PBM E-score” value turn out when GCGAATCA was run?
The value was 0.0762.

With CCCCTGGA as the sequence, how does the “PBM E-score” value read?
The value was -0.154.

Which “PBM E-score” value does the source give for CAATAAAG here?
Its value is 0.138.

How did the “PBM E-score” value turn out when ACGCGCAT was run?
Its value is 0.0251.

TAAGAGCA was tested. Which “PBM E-score” value did it give?
The value was 0.0294.

For ACGATCGC, which “PBM E-score” value is on record?
The value was 0.0874.

How did the “PBM E-score” value turn out when AGCGAACA was run?
The value was 0.0751.

How did the “PBM E-score” value turn out when CTACTGGA was run?
Its value is 0.0395.

Which “PBM E-score” value does the source give for TCCGTGAA here?
Its value is 0.0831.

With CACTTGAG as the sequence, how does the “PBM E-score” value read?
Its value is -0.0378.

Which “PBM E-score” value does the source give for GTAAAGGA here?
Its value is 0.0665.

ACCCCCTA was tested. Which “PBM E-score” value did it give?
Its value is -0.383.

AGGGACAA was tested. Which “PBM E-score” value did it give?
The value was 0.487.

For AGATATCC, which “PBM E-score” value is on record?
The value was -0.101.

For AAATGATT, which “PBM E-score” value is on record?
Its value is 0.276.

Which “PBM E-score” value does the source give for ATGTCAGA here?
Its value is 0.265.

How did the “PBM E-score” value turn out when TCCTTGCA was run?
The value was 0.0515.

For AGCCCCCA, which “PBM E-score” value is on record?
Its value is -0.369.

For GTTTCGAA, which “PBM E-score” value is on record?
Its value is 0.0695.

How did the “PBM E-score” value turn out when AGGTCTCG was run?
Its value is -0.156.

GCAGAACA was tested. Which “PBM E-score” value did it give?
Its value is -0.0343.

With GTACGAAC as the sequence, how does the “PBM E-score” value read?
The value was 0.311.

GCGAGGCC was tested. Which “PBM E-score” value did it give?
The value was -0.208.

For ACCAACCG, which “PBM E-score” value is on record?
Its value is 0.00056.

With GACCAGAA as the sequence, how does the “PBM E-score” value read?
Its value is 0.0209.

Which “PBM E-score” value does the source give for GGGCCTTA here?
Its value is -0.168.

Which “PBM E-score” value does the source give for GCCGGGCC here?
Its value is -0.238.

How did the “PBM E-score” value turn out when ACGAATAA was run?
The value was 0.197.

GTCGGGGA was tested. Which “PBM E-score” value did it give?
The value was -0.0863.

How did the “PBM E-score” value turn out when GACTCTGA was run?
The value was -0.0479.

With TGGATGAA as the sequence, how does the “PBM E-score” value read?
The value was -0.087.

For ACTTACGC, which “PBM E-score” value is on record?
The value was 0.0338.

CGCCCCCG was tested. Which “PBM E-score” value did it give?
The value was -0.225.

Which “PBM E-score” value does the source give for AAGGCCCC here?
The value was -0.257.

With GCAGGCGC as the sequence, how does the “PBM E-score” value read?
The value was -0.112.

With GCGCACGC as the sequence, how does the “PBM E-score” value read?
The value was -0.227.

Which “PBM E-score” value does the source give for ATTCGAAC here?
Its value is 0.143.

With AGGGAGCC as the sequence, how does the “PBM E-score” value read?
The value was -0.283.

ACAATCAC was tested. Which “PBM E-score” value did it give?
The value was 0.131.

Which “PBM E-score” value does the source give for CAATGGTA here?
The value was 0.0972.

With CTGGCTAA as the sequence, how does the “PBM E-score” value read?
Its value is -0.0239.

For ACTGTGTC, which “PBM E-score” value is on record?
The value was 0.217.

With ACGAACAA as the sequence, how does the “PBM E-score” value read?
The value was 0.269.

Which “PBM E-score” value does the source give for AATTAGGG here?
Its value is -0.126.

With CGGGGACG as the sequence, how does the “PBM E-score” value read?
The value was -0.152.

AGTGTAAC was tested. Which “PBM E-score” value did it give?
Its value is -0.108.

Which “PBM E-score” value does the source give for GCCACACA here?
Its value is -0.0564.

How did the “PBM E-score” value turn out when CACGCACA was run?
The value was -0.044.

With GAAGAATA as the sequence, how does the “PBM E-score” value read?
Its value is -0.141.

With CCGAGGAG as the sequence, how does the “PBM E-score” value read?
The value was -0.0868.

How did the “PBM E-score” value turn out when CGGAGTAG was run?
The value was 0.0939.

With AGATAGCT as the sequence, how does the “PBM E-score” value read?
The value was -0.113.

For GACAATTA, which “PBM E-score” value is on record?
The value was 0.426.

How did the “PBM E-score” value turn out when ACGAGGCG was run?
Its value is 0.0795.

Which “PBM E-score” value does the source give for AAGAATAC here?
Its value is 0.00255.

With ATACTCGG as the sequence, how does the “PBM E-score” value read?
The value was 0.179.

Which “PBM E-score” value does the source give for TGCTCACA here?
Its value is -0.0848.

Which “PBM E-score” value does the source give for AGTGTTTC here?
The value was -0.0607.

AGTTGAAC was tested. Which “PBM E-score” value did it give?
The value was 0.00997.

For CGGTCACG, which “PBM E-score” value is on record?
The value was -0.162.

GCCGGCTA was tested. Which “PBM E-score” value did it give?
Its value is -0.0401.

For ACGGTCCC, which “PBM E-score” value is on record?
The value was -0.269.

With AGCAAACC as the sequence, how does the “PBM E-score” value read?
The value was -0.0325.
